Experimental data reported in article PMC10432976.
Results are given in words; binding and its absence hold for the method and conditions named. In cells and extracts the contact can be indirect. Some results given as binding are weak or reduced against the parent protein; the word gives no strength. Tags and fused reporters may be left off the sequences shown. Values belong to the molecule of their own block, whether it stands above or below them.

Amino acid sequences for entries named in this document (tags omitted).
UniProt Q99836: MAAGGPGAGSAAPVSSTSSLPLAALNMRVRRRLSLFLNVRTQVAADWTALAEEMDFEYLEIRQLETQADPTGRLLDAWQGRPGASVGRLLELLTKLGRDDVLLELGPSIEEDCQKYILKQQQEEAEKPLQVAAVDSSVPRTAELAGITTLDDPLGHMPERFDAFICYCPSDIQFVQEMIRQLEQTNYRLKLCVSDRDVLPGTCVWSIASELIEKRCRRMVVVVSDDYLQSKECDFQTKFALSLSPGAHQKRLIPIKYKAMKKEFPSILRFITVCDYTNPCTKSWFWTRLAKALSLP

Experiments:
[1] = molecular target: T1, HA-Fli1 (pcDNA3-HA-Fli1, full-length mouse Fli1) (mouse) (UniProt Q9JJ28); assay: co-IP; HA-Fli1 and Myc-MyD88 in transfected Min6 cells (monolayers); HA immunoprecipitation, blot for MyD88; vehicle or IL1β 10 ng/ml for 30 min; control gRNA, TRB3 gRNA, or coexpressed HA-TRB3 or Myc-TRB3
T1 sequence: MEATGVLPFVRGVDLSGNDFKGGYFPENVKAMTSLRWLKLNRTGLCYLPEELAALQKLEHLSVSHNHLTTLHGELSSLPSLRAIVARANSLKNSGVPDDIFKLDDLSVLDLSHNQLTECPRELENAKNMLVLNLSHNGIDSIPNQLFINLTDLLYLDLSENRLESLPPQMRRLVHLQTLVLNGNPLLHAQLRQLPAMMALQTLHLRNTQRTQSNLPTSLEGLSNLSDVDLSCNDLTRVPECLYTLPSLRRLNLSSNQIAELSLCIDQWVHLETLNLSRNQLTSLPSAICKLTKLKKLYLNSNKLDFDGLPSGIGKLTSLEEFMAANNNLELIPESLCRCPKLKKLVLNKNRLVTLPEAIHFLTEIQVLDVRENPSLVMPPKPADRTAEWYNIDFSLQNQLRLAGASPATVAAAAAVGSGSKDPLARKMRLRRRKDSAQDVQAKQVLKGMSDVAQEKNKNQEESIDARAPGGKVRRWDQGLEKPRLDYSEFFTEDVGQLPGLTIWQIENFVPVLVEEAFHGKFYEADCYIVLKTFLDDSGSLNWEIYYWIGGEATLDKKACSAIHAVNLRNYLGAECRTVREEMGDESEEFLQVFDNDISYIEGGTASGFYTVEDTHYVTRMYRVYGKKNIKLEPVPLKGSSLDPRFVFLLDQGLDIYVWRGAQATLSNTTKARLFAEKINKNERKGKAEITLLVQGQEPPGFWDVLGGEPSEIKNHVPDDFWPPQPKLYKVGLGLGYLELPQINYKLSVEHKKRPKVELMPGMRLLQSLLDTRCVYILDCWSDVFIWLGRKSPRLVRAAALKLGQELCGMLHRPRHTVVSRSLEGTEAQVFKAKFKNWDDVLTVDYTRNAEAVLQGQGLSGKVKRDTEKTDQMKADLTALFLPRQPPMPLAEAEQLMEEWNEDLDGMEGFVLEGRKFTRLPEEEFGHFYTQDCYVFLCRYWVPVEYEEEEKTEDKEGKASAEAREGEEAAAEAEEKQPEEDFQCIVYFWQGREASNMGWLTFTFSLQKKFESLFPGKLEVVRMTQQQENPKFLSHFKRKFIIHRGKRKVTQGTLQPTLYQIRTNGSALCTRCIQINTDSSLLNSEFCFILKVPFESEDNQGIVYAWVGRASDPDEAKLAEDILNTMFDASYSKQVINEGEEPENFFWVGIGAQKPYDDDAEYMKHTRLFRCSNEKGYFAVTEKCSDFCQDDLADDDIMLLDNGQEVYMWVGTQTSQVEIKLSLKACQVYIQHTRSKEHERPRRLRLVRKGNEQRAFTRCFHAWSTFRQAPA

[2] = molecular target: T2, HA-Fli1-LRR (HA-tagged Fli1 N-terminal 400 amino acids) (UniProt Q13045); assay: co-IP; HA-tagged LRR domains and Flag-TRB3 coexpressed in HepG2 cells; HA immunoprecipitation, Western blot for Flag-TRB3; without or with LPS 10 ng/ml for 30 min
T2 sequence: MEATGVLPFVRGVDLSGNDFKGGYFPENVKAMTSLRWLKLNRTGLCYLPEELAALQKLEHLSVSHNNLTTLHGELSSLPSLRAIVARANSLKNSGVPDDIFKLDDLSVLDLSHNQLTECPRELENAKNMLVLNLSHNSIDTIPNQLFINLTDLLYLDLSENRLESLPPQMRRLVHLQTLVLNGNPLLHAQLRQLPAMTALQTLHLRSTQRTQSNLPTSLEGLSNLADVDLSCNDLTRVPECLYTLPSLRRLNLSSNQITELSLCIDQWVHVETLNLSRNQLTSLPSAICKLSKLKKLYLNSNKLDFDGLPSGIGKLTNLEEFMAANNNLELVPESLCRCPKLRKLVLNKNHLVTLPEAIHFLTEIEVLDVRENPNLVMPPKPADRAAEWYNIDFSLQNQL

[3] = molecular target: T3, Flag-TRB3 (expressed in Min6 cells) (UniProt Q8K4K2); assay: co-IP; Flag-TRB3 in Min6 cells clustered into pseudoislets, untreated (no IL1β); Flag immunoprecipitates blotted for endogenous Fli1
T3 sequence: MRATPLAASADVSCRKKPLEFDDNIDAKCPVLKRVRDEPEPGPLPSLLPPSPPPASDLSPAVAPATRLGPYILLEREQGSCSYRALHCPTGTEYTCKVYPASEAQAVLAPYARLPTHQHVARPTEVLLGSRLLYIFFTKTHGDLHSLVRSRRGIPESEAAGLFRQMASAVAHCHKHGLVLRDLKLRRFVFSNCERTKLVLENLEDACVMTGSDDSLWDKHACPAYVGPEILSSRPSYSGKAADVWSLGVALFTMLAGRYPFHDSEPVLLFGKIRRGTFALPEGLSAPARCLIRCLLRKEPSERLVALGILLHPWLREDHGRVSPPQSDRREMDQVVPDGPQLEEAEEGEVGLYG

[4] = molecular target: T3, Flag-TRB3 (expressed in Min6 cells); assay: co-IP; Flag-TRB3 in Min6 cells clustered into pseudoislets, treated with IL1β (10 ng/ml) for 30 min; Flag immunoprecipitates blotted for endogenous Fli1

B2: Myc-TRB3 (coexpressed in Min6 cells) (protein, UniProt Q8K4K2 1-354)
chain: T3 sequence
binding [1]: binds

B3: Flag-TRB3 (coexpressed in HepG2 cells) (protein, UniProt Q8K4K2 1-354)
chain: T3 sequence
binding [2]: binds

B4: endogenous Flightless homolog 1 (Fli1) of Min6 cells (protein, UniProt Q9JJ28 1-1271)
chain: T1 sequence
binding [3]: no binding (condition: untreated cells (without IL1β))
binding [4]: binds

Further lines, results first:

binding [1]: binds
Molecule: Myc-MyD88 (from UniProt Q99836 1-296)

binding [1]: binds
B1: HA-TRB3 (coexpressed in Min6 cells) (protein, UniProt Q8K4K2 1-354)
chain: T3 sequence
